Data from the supplement of paper PMC4604168 (melanoma cell lines).
The list shows a part of the results. Most values come without repeats; read them as rough.

test system: SkMel2; experiment: cell count relative to DMSO control; melanoma cells; higher = more viable cells; settings: library dose: low library concentration; 72 h
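Further: cell number obtained by counting DAPI-stained nuclei in high-throughput microscope images with image analysis software, screen run in 1,536-well plates.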

Structure (SMILES) | cell count
Nc1nc(F)nc2c1ncn2[C@@H]1O[C@H](CO)[C@@H](O)[C@@H]1O [fludarabine] + Oc1nc(-c2ccc(C(F)(F)F)cc2)nc2c1CSCC2 [XAV939] (first compound 0.2 µM, partner dose 2 µM) | 2.77%
Nc1ccn([C@@H]2O[C@H](CO)[C@@H](O)C2(F)F)c(=O)n1 [gemcitabine] + C#Cc1cccc(Nc2ncnc3cc(OCCOC)c(OCCOC)cc23)c1 [erlotinib] (first compound 0.0004 µM, partner dose 0.8 µM) | 112%
CC(=O)O[C@@]12CO[C@@H]1C[C@H](O)[C@@]1(C)C(=O)[C@H](O)C3=C(C)[C@@H](OC(=O)[C@H](O)[C@@H](NC(=O)OC(C)(C)C)c4ccccc4)C[C@@](O)([C@@H](OC(=O)c4ccccc4)[C@H]21)C3(C)C [Docetaxel] + O=C(O)c1ccc2c(c1)nc(Nc1cccc(Cl)c1)c1ccncc12 [CX4945] (first compound 0.0001 µM, partner dose 0.4 µM) | 47.6%
Nc1ccn([C@@H]2O[C@H](CO)[C@@H](O)C2(F)F)c(=O)n1 [gemcitabine] + Cn1cc(/C=C2\C(=O)Nc3cccnc32)c2ccccc21 [GW441756] (first compound 0.0004 µM, partner dose 0.4 µM) | 93.6%
CC(=O)O[C@@]12CO[C@@H]1C[C@H](O)[C@@]1(C)C(=O)[C@H](O)C3=C(C)[C@@H](OC(=O)[C@H](O)[C@@H](NC(=O)OC(C)(C)C)c4ccccc4)C[C@@](O)([C@@H](OC(=O)c4ccccc4)[C@H]21)C3(C)C [Docetaxel] + Cc1cc([N+](=O)[O-])ccc1NS(=O)(=O)c1cc(Cl)ccc1Cl [FH535] (first compound 0.0001 µM, partner dose 1 µM) | 49.2%
CC(=O)c1c(C)c2cnc(Nc3ccc(N4CCNCC4)cn3)nc2n(C2CCCC2)c1=O [palbociclib] + O=S(=O)(c1ccccc1)N(CC(F)(F)F)c1ccc(C(O)(C(F)(F)F)C(F)(F)F)cc1 [T0901317] (first compound 0.04 µM, partner dose 1.4 µM) | 73%
Nc1ncn([C@H]2C[C@H](O)[C@@H](CO)O2)c(=O)n1 [decitabine] + Cn1cncc1[C@@](N)(c1ccc(Cl)cc1)c1ccc2c(c1)c(-c1cccc(Cl)c1)cc(=O)n2C [tipifarnib] (first compound 0.1 µM, partner dose 0.01 µM) | 83.8%
CC(=O)O[C@@]12CO[C@@H]1C[C@H](O)[C@@]1(C)C(=O)[C@H](O)C3=C(C)[C@@H](OC(=O)[C@H](O)[C@@H](NC(=O)OC(C)(C)C)c4ccccc4)C[C@@](O)([C@@H](OC(=O)c4ccccc4)[C@H]21)C3(C)C [Docetaxel] + COc1cc2ncnc(Nc3ccc(Oc4ccccc4)cc3)c2cc1OC [SrcI1] (first compound 0.0001 µM, partner dose 2 µM) | 41.7%

test system: SkMel30; experiment: as above; settings: library dose: low library concentration; 72 h

Structure (SMILES) | cell count
Nc1ccn([C@@H]2O[C@H](CO)[C@@H](O)C2(F)F)c(=O)n1 [gemcitabine] + O=C(CCCCCCC(=O)Nc1ccccc1)NO [vorinostat] (first compound 0.0004 µM, partner dose 0.08 µM) | 120%
Nc1nc(F)nc2c1ncn2[C@@H]1O[C@H](CO)[C@@H](O)[C@@H]1O [fludarabine] + Oc1nc(-c2ccc(C(F)(F)F)cc2)nc2c1CSCC2 [XAV939] (first compound 0.2 µM, partner dose 2 µM) | 16.7%
Nc1ccn([C@@H]2O[C@H](CO)[C@@H](O)C2(F)F)c(=O)n1 [gemcitabine] + O=C(Nc1ccccc1)c1cc([N+](=O)[O-])ccc1Cl [GW9662] (first compound 0.0004 µM, partner dose 2 µM) | 95%
CO[C@H]1C[C@@H]2CC[C@@H](C)[C@@](O)(O2)C(=O)C(=O)N2CCCC[C@H]2C(=O)O[C@H]([C@H](C)C[C@@H]2CC[C@@H](OCCO)[C@H](OC)C2)CC(=O)[C@H](C)/C=C(\C)[C@@H](O)[C@@H](OC)C(=O)[C@H](C)C[C@H](C)/C=C/C=C/C=C/1C [everolimus] + COc1ccc(Cl)c(Nc2nc3ccccc3nc2NS(=O)(=O)c2cccc(NC(=O)C(C)(C)N)c2)c1 [XL147] (first compound 0.02 µM, partner dose 0.8 µM) | 82.1%
Nc1ccn([C@@H]2O[C@H](CO)[C@@H](O)C2(F)F)c(=O)n1 [gemcitabine] + C#Cc1cccc(Nc2ncnc3cc(OCCOC)c(OCCOC)cc23)c1 [erlotinib] (first compound 0.0004 µM, partner dose 0.8 µM) | 94.1%
CO[C@H]1C[C@@H]2CC[C@@H](C)[C@@](O)(O2)C(=O)C(=O)N2CCCC[C@H]2C(=O)O[C@H]([C@H](C)C[C@@H]2CC[C@@H](OCCO)[C@H](OC)C2)CC(=O)[C@H](C)/C=C(\C)[C@@H](O)[C@@H](OC)C(=O)[C@H](C)C[C@H](C)/C=C/C=C/C=C/1C [everolimus] + CN(C)S(=O)(=O)c1ccc2c(c1)/C(=C/c1cc3c([nH]1)CCCC3)C(=O)N2 [SU6656] (first compound 0.02 µM, partner dose 0.4 µM) | 66%
CO[C@H]1C[C@@H]2CC[C@@H](C)[C@@](O)(O2)C(=O)C(=O)N2CCCC[C@H]2C(=O)O[C@H]([C@H](C)C[C@@H]2CC[C@@H](OCCO)[C@H](OC)C2)CC(=O)[C@H](C)/C=C(\C)[C@@H](O)[C@@H](OC)C(=O)[C@H](C)C[C@H](C)/C=C/C=C/C=C/1C [everolimus] + Nc1nc(F)nc2c1ncn2[C@@H]1O[C@H](CO)[C@@H](O)[C@@H]1O [fludarabine] (first compound 0.02 µM, partner dose 0.2 µM) | 15.8%
CO[C@H]1C[C@@H]2CC[C@@H](C)[C@@](O)(O2)C(=O)C(=O)N2CCCC[C@H]2C(=O)O[C@H]([C@H](C)C[C@@H]2CC[C@@H](OCCO)[C@H](OC)C2)CC(=O)[C@H](C)/C=C(\C)[C@@H](O)[C@@H](OC)C(=O)[C@H](C)C[C@H](C)/C=C/C=C/C=C/1C [everolimus] + CC(=O)c1c(C)c2cnc(Nc3ccc(N4CCNCC4)cn3)nc2n(C2CCCC2)c1=O [palbociclib] (first compound 0.02 µM, partner dose 0.04 µM) | 45.9%
CC(=O)O[C@@]12CO[C@@H]1C[C@H](O)[C@@]1(C)C(=O)[C@H](O)C3=C(C)[C@@H](OC(=O)[C@H](O)[C@@H](NC(=O)OC(C)(C)C)c4ccccc4)C[C@@](O)([C@@H](OC(=O)c4ccccc4)[C@H]21)C3(C)C [Docetaxel] + CC(C)C[C@H](NC(=O)[C@H](Cc1ccccc1)NC(=O)c1cnccn1)B(O)O [Bortezomib] (first compound 0.0001 µM, partner dose 0.001 µM) | 36.2%
CO[C@H]1C[C@@H]2CC[C@@H](C)[C@@](O)(O2)C(=O)C(=O)N2CCCC[C@H]2C(=O)O[C@H]([C@H](C)C[C@@H]2CC[C@@H](OCCO)[C@H](OC)C2)CC(=O)[C@H](C)/C=C(\C)[C@@H](O)[C@@H](OC)C(=O)[C@H](C)C[C@H](C)/C=C/C=C/C=C/1C [everolimus] + Nc1ncn([C@H]2C[C@H](O)[C@@H](CO)O2)c(=O)n1 [decitabine] (first compound 0.02 µM, partner dose 0.1 µM) | 84.6%
CC(=O)O[C@@]12CO[C@@H]1C[C@H](O)[C@@]1(C)C(=O)[C@H](O)C3=C(C)[C@@H](OC(=O)[C@H](O)[C@@H](NC(=O)OC(C)(C)C)c4ccccc4)C[C@@](O)([C@@H](OC(=O)c4ccccc4)[C@H]21)C3(C)C [Docetaxel] + O=C(O)c1ccc2c(c1)nc(Nc1cccc(Cl)c1)c1ccncc12 [CX4945] (first compound 0.0001 µM, partner dose 0.4 µM) | 39.8%
Nc1ccn([C@@H]2O[C@H](CO)[C@@H](O)C2(F)F)c(=O)n1 [gemcitabine] + Cn1cc(/C=C2\C(=O)Nc3cccnc32)c2ccccc21 [GW441756] (first compound 0.0004 µM, partner dose 0.4 µM) | 98.6%
CO[C@H]1C[C@@H]2CC[C@@H](C)[C@@](O)(O2)C(=O)C(=O)N2CCCC[C@H]2C(=O)O[C@H]([C@H](C)C[C@@H]2CC[C@@H](OCCO)[C@H](OC)C2)CC(=O)[C@H](C)/C=C(\C)[C@@H](O)[C@@H](OC)C(=O)[C@H](C)C[C@H](C)/C=C/C=C/C=C/1C [everolimus] + OCCn1cc(-c2cnc3nnn(Cc4ccc5ncccc5c4)c3n2)cn1 [PF04217903] (first compound 0.02 µM, partner dose 1 µM) | 73%
CC(=O)O[C@@]12CO[C@@H]1C[C@H](O)[C@@]1(C)C(=O)[C@H](O)C3=C(C)[C@@H](OC(=O)[C@H](O)[C@@H](NC(=O)OC(C)(C)C)c4ccccc4)C[C@@](O)([C@@H](OC(=O)c4ccccc4)[C@H]21)C3(C)C [Docetaxel] + Cc1cc([N+](=O)[O-])ccc1NS(=O)(=O)c1cc(Cl)ccc1Cl [FH535] (first compound 0.0001 µM, partner dose 1 µM) | 50%
CO[C@H]1C[C@@H]2CC[C@@H](C)[C@@](O)(O2)C(=O)C(=O)N2CCCC[C@H]2C(=O)O[C@H]([C@H](C)C[C@@H]2CC[C@@H](OCCO)[C@H](OC)C2)CC(=O)[C@H](C)/C=C(\C)[C@@H](O)[C@@H](OC)C(=O)[C@H](C)C[C@H](C)/C=C/C=C/C=C/1C [everolimus] + COCC[n+]1c2c(n(Cc3cnccn3)c1C)C(=O)c1ccccc1C2=O [YM155] (first compound 0.02 µM, partner dose 0.0004 µM) | 70.7%
